# According to the supplement of paper PMC8728848:
# The other results are listed elsewhere or left out.
# Columns and labels:
# Experiment in all cases: glycan array binding signal (z-score within array); higher = stronger binding
# Details in all cases: glycan notation: IUPAC condensed, linker removed
# [1] = target: Neu5Ac(a2-3)Gal
# Procedure, shortened: (§1)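 The binding signal is a Z-score computed within each array and averaged over linkers. Arrays of the same protein sequence at different concentrations or buffers were also averaged together. Data originate from 3228 arrays in the Consortium for Functional Glycomics database, kept only where the protein sequence was available.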
# [2] = target: Neu5Ac(a2-3)Gal(b1-3)GalNAc
# Procedure, shortened: as §1
# [3] = target: Neu5Ac(a2-3)Gal(b1-3)GalNAc(b1-3)Gal(a1-4)Gal(b1-4)Glc
# Procedure, shortened: as §1
# [4] = target: Neu5Ac(a2-3)Gal(b1-3)GalNAc(b1-4)Gal(b1-4)Glc
# Procedure, shortened: as §1
# [5] = target: Neu5Ac(a2-3)Gal(b1-3)GalNAc(b1-4)[Neu5Ac(a2-3)]Gal(b1-4)Glc
# Procedure, shortened: as §1
# [6] = target: Neu5Ac(a2-3)Gal(b1-3)GalNAc(b1-4)[Neu5Ac(a2-8)Neu5Ac(a2-3)]Gal(b1-4)Glc
# Procedure, shortened: as §1
# [7] = target: Neu5Ac(a2-3)Gal(b1-3)GalNAc6S
# Procedure, shortened: as §1
# [8] = target: Neu5Ac(a2-3)Gal(b1-3)GlcNAc
# Procedure, shortened: as §1
# [9] = target: Neu5Ac(a2-3)Gal(b1-3)GlcNAc(b1-2)Man
# Procedure, shortened: as §1
# [10] = target: Neu5Ac(a2-3)Gal(b1-3)GlcNAc(b1-2)Man(a1-3)[GlcNAc(b1-4)][Neu5Ac(a2-3)Gal(b1-3)GlcNAc(b1-2)Man(a1-6)]Man(b1-4)GlcNAc(b1-4)GlcNAc
# Procedure, shortened: as §1
# [11] = target: Neu5Ac(a2-3)Gal(b1-3)GlcNAc(b1-2)Man(a1-3)[Neu5Ac(a2-3)Gal(b1-3)GlcNAc(b1-2)Man(a1-6)]Man(b1-4)GlcNAc(b1-4)GlcNAc
# Procedure, shortened: as §1
# [12] = target: Neu5Ac(a2-3)Gal(b1-3)GlcNAc(b1-2)[Neu5Ac(a2-3)Gal(b1-3)GlcNAc(b1-4)]Man(a1-6)[Neu5Ac(a2-3)Gal(b1-3)GlcNAc(b1-2)Man(a1-3)]Man(b1-4)GlcNAc(b1-4)GlcNAc
# Procedure, shortened: as §1
# [13] = target: Neu5Ac(a2-3)Gal(b1-3)GlcNAc(b1-3)Gal(b1-3)GlcNAc
# Procedure, shortened: as §1
# [14] = target: Neu5Ac(a2-3)Gal(b1-3)GlcNAc(b1-3)Gal(b1-4)GlcNAc
# Procedure, shortened: as §1
# [15] = target: Neu5Ac(a2-3)Gal(b1-3)GlcNAc(b1-3)GalNAc
# Procedure, shortened: as §1
# [16] = target: Neu5Ac(a2-3)Gal(b1-3)GlcNAc(b1-6)GalNAc
# Procedure, shortened: as §1
# [17] = target: Neu5Ac(a2-3)Gal(b1-3)GlcNAc6S
# Procedure, shortened: as §1
# [18] = target: Neu5Ac(a2-3)Gal(b1-3)[Fuc(a1-4)]GlcNAc
# Procedure, shortened: as §1
# [19] = target: Neu5Ac(a2-3)Gal(b1-3)[Fuc(a1-4)]GlcNAc(b1-3)Gal(b1-3)[Fuc(a1-4)]GlcNAc
# Procedure, shortened: as §1
# [20] = target: Neu5Ac(a2-3)Gal(b1-3)[Fuc(a1-4)]GlcNAc(b1-3)Gal(b1-4)[Fuc(a1-3)]GlcNAc
# Procedure, shortened: as §1
# [21] = target: Neu5Ac(a2-3)Gal(b1-3)[GlcNAc(b1-6)]GalNAc
# Procedure, shortened: as §1
# [22] = target: Neu5Ac(a2-3)Gal(b1-3)[Neu5Ac(a2-6)]GalNAc
# Procedure, shortened: as §1
# [23] = target: Neu5Ac(a2-3)Gal(b1-3)[Neu5Ac(a2-6)]GlcNAc(b1-3)[Fuc(a1-3)[Gal(b1-4)]GlcNAc(b1-6)]Gal(b1-4)Glc
# Procedure, shortened: as §1
# [24] = target: Neu5Ac(a2-3)Gal(b1-3)]Neu5Ac(a2-3)Gal(b1-4)]GlcNAc
# Procedure, shortened: as §1
# [25] = target: Neu5Ac(a2-3)Gal(b1-4)Glc
# Procedure, shortened: as §1
# [26] = target: Neu5Ac(a2-3)Gal(b1-4)GlcNAc
# Procedure, shortened: as §1
# [27] = target: Neu5Ac(a2-3)Gal(b1-4)GlcNAc(b1-2)Man
# Procedure, shortened: as §1
# [28] = target: Neu5Ac(a2-3)Gal(b1-4)GlcNAc(b1-2)Man(a1-3)[GlcNAc(b1-4)][Neu5Ac(a2-3)Gal(b1-4)GlcNAc(b1-2)Man(a1-6)]Man(b1-4)GlcNAc(b1-4)GlcNAc
# Procedure, shortened: as §1
# [29] = target: Neu5Ac(a2-3)Gal(b1-4)GlcNAc(b1-2)Man(a1-3)[Neu5Ac(a2-3)Gal(b1-4)GlcNAc(b1-2)Man(a1-6)]Man(b1-4)GlcNAc(b1-4)GlcNAc
# Procedure, shortened: as §1
# [30] = target: Neu5Ac(a2-3)Gal(b1-4)GlcNAc(b1-2)Man(a1-3)[Neu5Ac(a2-3)Gal(b1-4)GlcNAc(b1-2)Man(a1-6)]Man(b1-4)GlcNAc(b1-4)[Fuc(a1-6)]GlcNAc
# Procedure, shortened: as §1
# [31] = target: Neu5Ac(a2-3)Gal(b1-4)GlcNAc(b1-2)Man(a1-3)[Neu5Ac(a2-6)Gal(b1-4)GlcNAc(b1-2)Man(a1-6)]Man(b1-4)GlcNAc(b1-4)GlcNAc
# Procedure, shortened: as §1
# [32] = target: Neu5Ac(a2-3)Gal(b1-4)GlcNAc(b1-2)[Neu5Ac(a2-3)Gal(b1-4)GlcNAc(b1-4)]Man(a1-3)[GlcNAc(b1-4)][Neu5Ac(a2-3)Gal(b1-4)GlcNAc(b1-2)[Neu5Ac(a2-3)Gal(b1-4)GlcNAc(b1-6)]Man(a1-6)]Man(b1-4)GlcNAc(b1-4)GlcNAc
# Procedure, shortened: as §1
# [33] = target: Neu5Ac(a2-3)Gal(b1-4)GlcNAc(b1-2)[Neu5Ac(a2-3)Gal(b1-4)GlcNAc(b1-4)]Man(a1-3)[GlcNAc(b1-4)][Neu5Ac(a2-3)Gal(b1-4)GlcNAc(b1-4)Man(a1-6)]Man(b1-4)GlcNAc(b1-4)GlcNAc
# Procedure, shortened: as §1
# [34] = target: Neu5Ac(a2-3)Gal(b1-4)GlcNAc(b1-2)[Neu5Ac(a2-3)Gal(b1-4)GlcNAc(b1-6)]Man(a1-6)[Neu5Ac(a2-3)Gal(b1-4)GlcNAc(b1-2)Man(a1-3)][GlcNAc(b1-4)]Man(b1-4)GlcNAc(b1-4)GlcNAc
# Procedure, shortened: as §1
# [35] = target: Neu5Ac(a2-3)Gal(b1-4)GlcNAc(b1-3)Gal
# Procedure, shortened: as §1
# [36] = target: Neu5Ac(a2-3)Gal(b1-4)GlcNAc(b1-3)Gal(b1-3)GlcNAc
# Procedure, shortened: as §1
# [37] = target: Neu5Ac(a2-3)Gal(b1-4)GlcNAc(b1-3)Gal(b1-4)GlcNAc
# Procedure, shortened: as §1
# [38] = target: Neu5Ac(a2-3)Gal(b1-4)GlcNAc(b1-3)Gal(b1-4)GlcNAc(b1-2)Man(a1-3)[Neu5Ac(a2-3)Gal(b1-4)GlcNAc(b1-3)Gal(b1-4)GlcNAc(b1-2)Man(a1-6)]Man(b1-4)GlcNAc(b1-4)GlcNAc
# Procedure, shortened: as §1
# [39] = target: Neu5Ac(a2-3)Gal(b1-4)GlcNAc(b1-3)Gal(b1-4)GlcNAc(b1-3)Gal(b1-4)GlcNAc
# Procedure, shortened: as §1
# [40] = target: Neu5Ac(a2-3)Gal(b1-4)GlcNAc(b1-3)Gal(b1-4)GlcNAc(b1-3)Gal(b1-4)GlcNAc(b1-2)Man(a1-3)[Neu5Ac(a2-3)Gal(b1-4)GlcNAc(b1-3)Gal(b1-4)GlcNAc(b1-3)Gal(b1-4)GlcNAc(b1-2)Man(a1-6)]GalNAc
# Procedure, shortened: as §1
# [41] = target: Neu5Ac(a2-3)Gal(b1-4)GlcNAc(b1-3)Gal(b1-4)GlcNAc(b1-3)GalNAc
# Procedure, shortened: as §1
# [42] = target: Neu5Ac(a2-3)Gal(b1-4)GlcNAc(b1-3)Gal(b1-4)GlcNAc(b1-3)[Neu5Ac(a2-3)Gal(b1-4)GlcNAc(b1-3)Gal(b1-4)GlcNAc(b1-6)]GalNAc
# Procedure, shortened: as §1
# [43] = target: Neu5Ac(a2-3)Gal(b1-4)GlcNAc(b1-3)Gal(b1-4)GlcNAc(b1-6)[Gal(b1-3)]GalNAc
# Procedure, shortened: as §1
# [44] = target: Neu5Ac(a2-3)Gal(b1-4)GlcNAc(b1-3)Gal(b1-4)[Fuc(a1-3)]GlcNAc
# Procedure, shortened: as §1
# [45] = target: Neu5Ac(a2-3)Gal(b1-4)GlcNAc(b1-3)GalNAc
# Procedure, shortened: as §1
binder,measurement,setting,value
CML1 (Coprinopsis cinerea) (protein) MAIFHTGSELFIITRGPGKLTLLTWGGLNNLRSVIGAIPTENTGVTKWAVSFSHNYTRFSFIWEGQGEACYQIGNGLTRSPVGRSWSSSSTIHWGSSTVITEDVTSVVPGAVNRDKVTTAYALPDNL,glycan array binding signal (z-score),[1],-0.357
same,glycan array binding signal (z-score),[2],-0.342
same,glycan array binding signal (z-score),[3],-0.333
same,glycan array binding signal (z-score),[4],-0.369
same,glycan array binding signal (z-score),[5],-0.333
same,glycan array binding signal (z-score),[6],-0.344
same,glycan array binding signal (z-score),[7],-0.335
same,glycan array binding signal (z-score),[8],-0.329
same,glycan array binding signal (z-score),[9],-0.346
same,glycan array binding signal (z-score),[10],-0.321
same,glycan array binding signal (z-score),[11],-0.355
same,glycan array binding signal (z-score),[12],-0.346
same,glycan array binding signal (z-score),[13],-0.345
same,glycan array binding signal (z-score),[14],-0.298
same,glycan array binding signal (z-score),[15],-0.347
same,glycan array binding signal (z-score),[16],-0.325
same,glycan array binding signal (z-score),[17],-0.32
same,glycan array binding signal (z-score),[18],4.64
same,glycan array binding signal (z-score),[19],2.76
same,glycan array binding signal (z-score),[20],1.77
same,glycan array binding signal (z-score),[21],-0.341
same,glycan array binding signal (z-score),[22],-0.327
same,glycan array binding signal (z-score),[23],-0.293
same,glycan array binding signal (z-score),[24],-0.317
same,glycan array binding signal (z-score),[25],-0.34
same,glycan array binding signal (z-score),[26],-0.328
same,glycan array binding signal (z-score),[27],-0.333
same,glycan array binding signal (z-score),[28],-0.337
same,glycan array binding signal (z-score),[29],-0.334
same,glycan array binding signal (z-score),[30],-0.336
same,glycan array binding signal (z-score),[31],-0.319
same,glycan array binding signal (z-score),[32],-0.359
same,glycan array binding signal (z-score),[33],-0.332
same,glycan array binding signal (z-score),[34],-0.332
same,glycan array binding signal (z-score),[35],-0.3
same,glycan array binding signal (z-score),[36],-0.334
same,glycan array binding signal (z-score),[37],-0.355
same,glycan array binding signal (z-score),[38],-0.331
same,glycan array binding signal (z-score),[39],-0.349
same,glycan array binding signal (z-score),[40],-0.319
same,glycan array binding signal (z-score),[41],-0.342
same,glycan array binding signal (z-score),[42],-0.28
same,glycan array binding signal (z-score),[43],-0.324
same,glycan array binding signal (z-score),[44],-0.341
same,glycan array binding signal (z-score),[45],-0.334
